The RNAGym collection of RNA variant scans (doi:10.7554/elife.90254)
Read counts are not given, so values of variants with three or more changes are uncertain.

B1: LINE1-mini (parent)
chain: GGCAGAGCUCAACACAGCGUGGCAAAGUGGCUGUGGCUAGACUGCC

Variants of: B1
Assay: self-cleavage, relative activity (ratio to wild type); higher = more cleavage; in vitro, sequencing; the parent is a self-cleaving ribozyme
With G5U C13A G30C C31G the self-cleavage was 0.04.
Work on G5U A14U U32C A39C C46G yielded a self-cleavage of 0.01.
In the case of G5U C15A C46A, the self-cleavage is reported as 0.05.
Work on G5C A24U G27A G36U yielded a self-cleavage of 0.04.
In the case of G5C A14U C31A U32C, the self-cleavage is reported as 0.05.
Work on G5C C15A G27C A39G yielded a self-cleavage of 0.16.
With G5C A24C G29U the self-cleavage was 0.07.
Work on G5C C18U G44U yielded a self-cleavage of 0.06.
Variant G5C C15G G19A has a self-cleavage of 0.02.
Work on G5C G17U U20A G27U C42A yielded a self-cleavage of 0.04.
G5A U28G G33A showed a self-cleavage of 0.41.
For G5C C15A C23U A25C G27A A41G, the self-cleavage was 0.02.
G5C G21U C31U C42G gave a self-cleavage of 0.08.
In the case of G5C A12U A39C, the self-cleavage is reported as 0.04.
G5U C8A G29U G35U showed a self-cleavage of 0.38.
In the case of G5C A14C G21C U32C C45G, the self-cleavage is reported as 0.06.
Variant G5C A14U A16G G22U C23G G29U U43C C45A has a self-cleavage of 0.01.
G5C C15G G29A showed a self-cleavage of 0.07.
Variant G5C A6C A11G A26U has a self-cleavage of 0.02.
In the case of G5U C15G A24C G35C C42A, the self-cleavage is reported as 0.05.
Work on G5C G7U C8A C15A G35C G40C yielded a self-cleavage of 0.2.
With G5C A6C G22A C23U C45G the self-cleavage was 0.04.
Variant G5C U9C A11C A12U has a self-cleavage of 0.05.
In the case of G5C A11G A14G C15U C18A G19A G30C C31A A41G, the self-cleavage is reported as 0.
Variant G5C G7A G21A U43C has a self-cleavage of 1.39.
Work on G5C U20G G35U G36A yielded a self-cleavage of 0.17.
For G5C G22U C37U, the self-cleavage was 0.02.
With G5C G27A C31A C37G C45G the self-cleavage was 0.05.
G5U C8G U28G A41U gave a self-cleavage of 0.11.
Work on G5U C8U G22U U32C yielded a self-cleavage of 0.08.
G5U C8G G22U A25G G29U G35U showed a self-cleavage of 0.03.
G5C G30U U38C showed a self-cleavage of 0.04.
Variant G5U C8A G36A G44U has a self-cleavage of 0.09.
For G5U C10A A16C A25U, the self-cleavage was 0.04.
In the case of G5U A12C G19U U34A A41U C46U, the self-cleavage is reported as 0.01.
G5C C31G C37A A41G showed a self-cleavage of 0.03.
G5C A12U A25C G30C showed a self-cleavage of 0.01.
With G5C A25U C31A the self-cleavage was 0.02.
With G5C C15G G21C A41G the self-cleavage was 0.03.
In the case of G5U A6G A11C G22A, the self-cleavage is reported as 0.01.
Variant G5C G27U A39U has a self-cleavage of 0.01.
In the case of G5C C10U U34G, the self-cleavage is reported as 0.02.
G5C G19A G33A G40A gave a self-cleavage of 0.68.
In the case of G5C C13U A14C A26C G29U C37A, the self-cleavage is reported as 0.97.
Variant G5A U28A G29C G33A G44U has a self-cleavage of 0.06.
With G5C U43G G44U the self-cleavage was 0.01.
G5C C8G C23U A26C G27C U38G showed a self-cleavage of 0.03.
In the case of G5C G36U C37A A41G, the self-cleavage is reported as 0.02.
G5C C8A G22U C31G U34A A39U gave a self-cleavage of 0.12.
Work on G5A U32C G40U yielded a self-cleavage of 0.03.
With G5C U9A G33A the self-cleavage was 0.02.
G5C C10A G27A gave a self-cleavage of 0.
G5C G29U C37A G44U C45A showed a self-cleavage of 0.07.
Work on G5C G27U C37A U38C G40U C46G yielded a self-cleavage of 0.03.
Work on G5U C15A G40U yielded a self-cleavage of 0.03.
Work on G5U C15A G30A yielded a self-cleavage of 0.1.
Variant G5U C15A G29C G33A A39C has a self-cleavage of 0.05.
With G5U A11U C18A A25U the self-cleavage was 0.04.
For G5C G22U A25C G30C, the self-cleavage was 0.08.
Work on G5C U20A C23A G40A yielded a self-cleavage of 0.13.
G5C C10U A41G gave a self-cleavage of 0.01.
With G5C A6C G19C G22C U34C the self-cleavage was 0.1.
G5U A12C C18A A24C C37G gave a self-cleavage of 0.02.
Variant G5C A16G A25C G29C U43A has a self-cleavage of 0.01.
G5C G17C A24U G27C gave a self-cleavage of 0.01.
G5U C13U A26C showed a self-cleavage of 0.07.
With G5C G7A G17A the self-cleavage was 0.03.
Variant G5U A11U C13A G27C C31U A41C has a self-cleavage of 0.04.
Variant G5U C8A C10G C15G has a self-cleavage of 0.03.
Variant G5U A16U G17U G19C has a self-cleavage of 0.03.
Work on G5U A16C U32G G36A C42A yielded a self-cleavage of 0.07.
G5C C13G C18G G30U showed a self-cleavage of 0.05.
In the case of G5C G19A G22A, the self-cleavage is reported as 0.08.
Variant G5C G7U A11C C31U G44C has a self-cleavage of 0.02.
Variant G5U C8G U9C A12U A14C G36U has a self-cleavage of 0.02.
With G5C C23A C31U the self-cleavage was 0.02.
With G5U A14C C18U U20C the self-cleavage was 0.06.
With G5C C10A U38C A39G A41U C42A the self-cleavage was 0.04.
Work on G5C G22U C31A yielded a self-cleavage of 0.03.
With G5C C37A G40U the self-cleavage was 0.04.
Work on G5U A11C G35C U38C yielded a self-cleavage of 0.03.
G5U C8U C37U gave a self-cleavage of 0.07.
Work on G5U A14G G27U U43A yielded a self-cleavage of 0.02.
With G5U A6G G19U A24U G35U the self-cleavage was 0.04.
G5U A26G C46U showed a self-cleavage of 0.08.
G5C C10G C13A G22U gave a self-cleavage of 0.03.
With G5C G7A G22C G27U A39C the self-cleavage was 0.07.
Variant G5C C23A A25U A26G has a self-cleavage of 0.01.
Variant G5U C15U C18G G27U C31U G35U has a self-cleavage of 0.03.
G5U A14U G17A G29U G36C C37A gave a self-cleavage of 0.07.
Work on G5U A11U U43A yielded a self-cleavage of 0.01.
Work on G5C C13G C15G U20A C31G yielded a self-cleavage of 0.01.
With G5U C10A A11G G40C the self-cleavage was 0.01.
G5U C13U A16G C37A showed a self-cleavage of 0.01.
G5C U9C C10G U20G A26C U32G showed a self-cleavage of 0.03.
G5U C13A U20G C23U showed a self-cleavage of 0.01.
Work on G5C A12U G19U G29A G40A yielded a self-cleavage of 0.01.
For G5C U28G A39C, the self-cleavage was 0.02.
G5U C15U G19A G30C U34A showed a self-cleavage of 0.05.
With G5C A12G C23G U32G the self-cleavage was 0.08.
Work on G5C G27C U32C U38C G40A C46U yielded a self-cleavage of 0.06.
G5C A24U U43C showed a self-cleavage of 0.
G5U C8U G27C C31U gave a self-cleavage of 0.12.
Variant G5C G7U A26G has a self-cleavage of 0.07.
Work on G5C C15A G19U yielded a self-cleavage of 0.01.
G5C C8U A24U G30A G33U gave a self-cleavage of 0.13.
G5C C10A G35A A39U gave a self-cleavage of 0.04.
With G5C C10G A12U C13G the self-cleavage was 0.02.
With G5C C18G G27C A39U the self-cleavage was 0.05.
Variant G5C C8G G17U C18U G22U C31U C46G has a self-cleavage of 0.03.
G5U A11C A14U A16C A26C G27A C31U G35U showed a self-cleavage of 0.01.
G5U C10A C13A A14U C23G G30U gave a self-cleavage of 0.06.
G5U C13G G36A showed a self-cleavage of 0.2.
G5C U20G G33U gave a self-cleavage of 0.03.
Variant G5U A11C G22U G29U U38A C46A has a self-cleavage of 0.
G5U C10G A11C U20G C23A U28C showed a self-cleavage of 0.01.
In the case of G5C G17A C42G G44C, the self-cleavage is reported as 0.
With G5C A6U U34G the self-cleavage was 0.05.
With G5C G29C C31A G33U U38A the self-cleavage was 0.21.
For G5U A24U G44U, the self-cleavage was 0.03.
In the case of G5C U34C G44C, the self-cleavage is reported as 0.04.
For G5U A26U G36A, the self-cleavage was 0.49.
Variant G5C A12U U32G C42U has a self-cleavage of 0.02.
G5C A11C G40C showed a self-cleavage of 0.03.
In the case of G5C A26C G44U, the self-cleavage is reported as 0.03.
For G5U C10U A16C, the self-cleavage was 0.02.
With G5U A39G G44C the self-cleavage was 0.09.
G5U C13U C23G U28G gave a self-cleavage of 0.02.
Variant G5C A12U A14U G44C has a self-cleavage of 0.07.
Work on G5C A12C A24G G33A C42U yielded a self-cleavage of 0.08.
G5C A11G C45U showed a self-cleavage of 0.04.
Variant G5C U20C G29A has a self-cleavage of 0.03.
G5C C13A C15U gave a self-cleavage of 0.06.
For G5C C10A C23U, the self-cleavage was 0.02.
Work on G5C A6C U20G C31A U32A U38A yielded a self-cleavage of 0.02.
Work on G5C A6C C8G A16C G27C A41G yielded a self-cleavage of 0.01.
G5U A12G C13G A14G showed a self-cleavage of 0.03.
G5U C8G G40A gave a self-cleavage of 0.47.
G5U A11U U28G C31A C46G showed a self-cleavage of 0.05.
G5C A6G G29U showed a self-cleavage of 0.12.
Work on G5C C10A C31A G40A yielded a self-cleavage of 0.
Variant G5C A6G A14U C23U C31U G33U U38G has a self-cleavage of 0.11.
G5U A6U U9A gave a self-cleavage of 0.12.
Work on G5C C13A U32C G40A C42U C46U yielded a self-cleavage of 0.16.
Work on G5C U28A G44U C46U yielded a self-cleavage of 0.01.
In the case of G5C C15A G19U A25G, the self-cleavage is reported as 0.01.
With G5C A12G G17C G22A C23G the self-cleavage was 0.01.
Work on G5C G30U U34A G36C yielded a self-cleavage of 0.05.
Variant G5C C13G C23G has a self-cleavage of 0.35.
G5U C10A G19A U20A C31A showed a self-cleavage of 0.03.
In the case of G5U C8A G17A C18U, the self-cleavage is reported as 0.1.
G5U A41C C42U gave a self-cleavage of 0.01.
Variant G5C U9G A14G G19U G36A has a self-cleavage of 0.04.
G5A U34C C42A showed a self-cleavage of 0.04.
G5C C18U U28G showed a self-cleavage of 0.01.
With G5U A26C G33U the self-cleavage was 0.02.
For G5C G33U A39C, the self-cleavage was 0.18.
Work on G5U A11C G30C yielded a self-cleavage of 0.02.
Work on G5C G17U G21C G40U yielded a self-cleavage of 0.03.
G5C A12U G29A A41G showed a self-cleavage of 0.02.
Work on G5U C10G G21U U38A G44U yielded a self-cleavage of 0.
Work on G5U C8G C10U U28A yielded a self-cleavage of 0.05.
G5U C10U C15A C23A C31A G36U gave a self-cleavage of 0.06.
With G5C G35C G44A the self-cleavage was 0.02.
G5U C8U A11G A16C G21A G33C showed a self-cleavage of 0.02.
With G5U A11G G27U the self-cleavage was 0.02.
G5C A6U G19A gave a self-cleavage of 0.09.
